The whole screen tested about 43,000 compounds, of which about 200 (0.47%) were called active. Roughly 12% stayed inconclusive and do not appear here. The call rests on the fitted dose curve; in most records, active means well fitted cell-killing curve with a large enough effect; inconclusive means small, poorly fitted or top-dose-only effect, or effect the other way; inactive means flat fitted curve, though single readings scatter. The list shows a part of the results.
Experiment: Cell viability qHTS assay in S16 Pmp22-F2sN cells; further: nearly all actives have a fitted effect of over 65% in size
Settings: S16 Pmp22-F2sN Schwann cells viability, CellTiter-Glo, 24 h; series mostly up to 57.5 µM; activity change, negative = cytotoxicity: at the top concentration
How it was run: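 Viability was measured by CellTiter-Glo luminescence (15 min, room temperature). This followed 24 h at 37 °C of compound exposure (23 nL pin transfer) in S16 Pmp22-F2sN Schwann cells, 500-1,000 per well.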
On the % scale 0 is the no-effect control and ±100 the full control effect.

SMILES | activity change, negative = cytotoxicity
Cc1ccc(CNC(=O)Cn2ncc3c(C)n(Cc4ccc(Cl)cc4)c(C)c3c2=O)cc1 | inactive: -12.6%
COc1ccccc1Nc1cc(C)nc2nc(-c3ccccc3)nn12 | inactive: -3.16%
CCC(C)NC(=O)Cn1c(=O)n(Cc2ccc(C(=O)NCCCOC)cc2)c(=O)c2ccccc21 (stereo not drawn) | inactive: 4.37%
Cc1ccc(NC(=O)c2c(N3CCCC3=O)c3cc(C)ccc3n2C)c(C)c1 | inactive: 12.4%
COc1ccc(OCCn2c(C3CC(=O)N(c4ccc(F)cc4)C3)nc3ccccc32)cc1 (stereo not drawn) | inactive: -18%
COc1ccc(Nc2cc(C(=O)NCCc3ccccc3)c3ccccc3n2)cc1OC | inactive: 4.98%
O=C(C1CCCN(S(=O)(=O)c2cccs2)C1)N1CCN(c2cccc(Cl)c2)CC1 (stereo not drawn) | inactive: 5.45%
Cc1ccc(C)c(N2CCN(c3ncnc4c3nc3n4CCCCC3)CC2)c1 | inactive: 16.4%
Cn1nc(C(=O)N2CCN(c3ccc(Cl)cc3)CC2)c2c1-c1ccccc1SC2 | inactive: 17.7%
Cc1ccc(NC(=O)Cn2nnnc2-c2ccccc2N)cc1 | inactive: 1.37%
O=c1c2cc3c(cc2nc2sc(Nc4ccc(F)cc4F)nn12)OCO3 | inactive: 3.88%
COc1cccc(CNC(=O)CSc2ccc(-c3sc(-c4ccccc4)nc3C)nn2)c1 | inactive: -24.5%
COc1ccc(Cl)cc1NC(=O)N1CCC(CN2CCc3ccccc3C2)CC1 | inactive: 11.7%
CCOc1ccc(C(=O)NCC(c2ccco2)S(=O)(=O)c2ccc(C)cc2)cc1 (stereo not drawn) | inactive: -19.6%
Cn1c(=O)c2nc(SCC(=O)Nc3cc(Cl)ccc3Cl)n(C)c2n(C)c1=O | inactive: 0.101%
c1ccc(CNc2nc3ccccc3c3nc(-c4ccccc4)nn23)cc1 | inactive: 20.2%
NC(=O)CSc1nc2c(oc3ccccc32)c(=O)n1-c1ccccc1F | inactive: -2.76%
Cc1cccc(-c2nc(SCCCOc3ccccc3Cl)n3[nH]c(=O)cc3n2)c1 | inactive: 7.21%
CC(=O)Nc1ccc(Nc2ncnc3c2c(-c2ccccc2)cn3-c2ccccc2)cc1 | inactive: -24.4%
Cc1cc(C)cc(-n2c(SCC(=O)N3CCc4ccccc43)nc3c([nH]c4ccccc43)c2=O)c1 | inactive: -0.226%
O=C(Nc1ccc(F)c(Cl)c1)N1CCN(C(=O)c2nsc3ccccc23)CC1 | inactive: 1.52%
CCOc1ccc(OCC)c(NC(=O)C2CCCN(S(=O)(=O)c3ccc4c(c3)oc(=O)n4C)C2)c1 (stereo not drawn) | inactive: 15.5%
CCOc1ccc(CNC(=O)Cn2c(=O)c3cccn3c3ccc(F)cc32)cc1 | inactive: 12.6%
Cc1ccc(C)c(N2CCN(S(=O)(=O)c3ccc4oc(=O)c5ncn(C)c5c4c3)CC2)c1 | inactive: 5.9%

SMILES | activity change, negative = cytotoxicity
COc1cc(NC(=O)Cn2c(=O)n(Cc3ccccc3OC)c(=O)c3cccnc32)cc(OC)c1 | inactive: 11.5%
Cc1ccc(C(=O)COC(=O)c2cc(-c3ccccc3)nc3ccccc23)cc1C | inactive: 27.1%
COc1ccc(NC(=O)CCN2CCN(c3cccc(Cl)c3)CC2)cc1 | inactive: 10.7%
Cc1ccc(S(=O)(=O)c2nnn3c2nc(NCc2ccc(F)cc2)c2sccc23)cc1 | inactive: 1.09%
CCCNC(=O)c1ccc2c(c1)N(Cc1cccc(C)c1)C(=O)c1ccccc1S2 | inactive: -2.32%
COc1ccc(-c2nc(C)c(CCNC(=O)C(=O)Nc3cccc(F)c3)s2)cc1OC | inactive: -2.84%
COc1ccccc1NC(=O)CCCOc1cc(=O)n(C)c2ccccc12 | inactive: -5.74%
CC1CCN(c2nc3c(S(=O)(=O)c4ccccc4)nnn3c3ccsc23)CC1 | inactive: 5.1%
Cc1ccc(C)c(Cn2c(=O)n(Cc3ccccc3)c(=O)c3c(C)c(C)sc32)c1 | inactive: -18.5%
CCOC(=O)CCn1nc(-c2ccc(C)cc2)c2ccccc2c1=O | inactive: -9.57%
CCc1ccccc1NC(=O)Nc1nnc(N2CCCC2)s1 | inactive: 7.79%
CCc1ccc(CN(Cc2ccco2)C(=O)c2ccccc2Cl)cc1 | inactive: -3.46%
O=C(CC1N=C2c3ccccc3N=C(SCC(=O)Nc3cccc(C(F)(F)F)c3)N2C1=O)NCc1cccs1 (stereo not drawn) | inactive: -8.73%
COc1ccc(CCNC(=O)c2nn(-c3ccc(C)cc3)c(=O)c3c2c2ccccc2n3C)cc1OC | inactive: 21.7%
COc1ccccc1CCNC(=O)c1ccc2c(c1)c(C)c(C)n2C | inactive: -3.47%
CCc1ccc(NCc2cc3cc4c(cc3n(CC(=O)Nc3ccc(Cl)cc3)c2=O)OCO4)cc1 | inactive: 9.97%
COc1ccc(NC(=O)CSc2ncc(-c3ccc(Cl)cc3)[nH]2)cc1OC | inactive: -1.62%
CCc1ccccc1NC(=O)Cn1nnc(C(=O)OC)c1C(=O)OC | inactive: -1.01%
CCN(CC)S(=O)(=O)c1ccc2c(c1)N(CC(=O)Nc1c(C)cccc1C)C(=O)CO2 | inactive: 1.84%
COc1ccc(OC)c(N(CC(=O)NCc2ccccc2)S(=O)(=O)c2ccccc2)c1 | inactive: -1.34%
CCOC(=O)c1sc2ccccc2c1S(=O)(=O)Nc1ccc(N(C)C)cc1 | inactive: -25.9%
CCOC(=O)c1sc(N2C(=O)c3oc4cc(C)c(C)cc4c(=O)c3C2c2cccc(O)c2)nc1C (stereo not drawn) | inactive: -6.01%
Cc1cc(S(=O)(=O)Nc2cccc(C(=O)O)c2)c(C)c(S(=O)(=O)c2ccccc2)c1 | inactive: 8.85%
COC(=O)c1cc(NC(=O)CCc2c(C)nc3c4c(C)cc(C)nc4nn3c2C)cc(C(=O)OC)c1 | inactive: 9.71%
